The record followed here is paper PMC5730846.

Protein sequences, listed by entry. Tags and fused reporters are not part of them.
UniProt P49815: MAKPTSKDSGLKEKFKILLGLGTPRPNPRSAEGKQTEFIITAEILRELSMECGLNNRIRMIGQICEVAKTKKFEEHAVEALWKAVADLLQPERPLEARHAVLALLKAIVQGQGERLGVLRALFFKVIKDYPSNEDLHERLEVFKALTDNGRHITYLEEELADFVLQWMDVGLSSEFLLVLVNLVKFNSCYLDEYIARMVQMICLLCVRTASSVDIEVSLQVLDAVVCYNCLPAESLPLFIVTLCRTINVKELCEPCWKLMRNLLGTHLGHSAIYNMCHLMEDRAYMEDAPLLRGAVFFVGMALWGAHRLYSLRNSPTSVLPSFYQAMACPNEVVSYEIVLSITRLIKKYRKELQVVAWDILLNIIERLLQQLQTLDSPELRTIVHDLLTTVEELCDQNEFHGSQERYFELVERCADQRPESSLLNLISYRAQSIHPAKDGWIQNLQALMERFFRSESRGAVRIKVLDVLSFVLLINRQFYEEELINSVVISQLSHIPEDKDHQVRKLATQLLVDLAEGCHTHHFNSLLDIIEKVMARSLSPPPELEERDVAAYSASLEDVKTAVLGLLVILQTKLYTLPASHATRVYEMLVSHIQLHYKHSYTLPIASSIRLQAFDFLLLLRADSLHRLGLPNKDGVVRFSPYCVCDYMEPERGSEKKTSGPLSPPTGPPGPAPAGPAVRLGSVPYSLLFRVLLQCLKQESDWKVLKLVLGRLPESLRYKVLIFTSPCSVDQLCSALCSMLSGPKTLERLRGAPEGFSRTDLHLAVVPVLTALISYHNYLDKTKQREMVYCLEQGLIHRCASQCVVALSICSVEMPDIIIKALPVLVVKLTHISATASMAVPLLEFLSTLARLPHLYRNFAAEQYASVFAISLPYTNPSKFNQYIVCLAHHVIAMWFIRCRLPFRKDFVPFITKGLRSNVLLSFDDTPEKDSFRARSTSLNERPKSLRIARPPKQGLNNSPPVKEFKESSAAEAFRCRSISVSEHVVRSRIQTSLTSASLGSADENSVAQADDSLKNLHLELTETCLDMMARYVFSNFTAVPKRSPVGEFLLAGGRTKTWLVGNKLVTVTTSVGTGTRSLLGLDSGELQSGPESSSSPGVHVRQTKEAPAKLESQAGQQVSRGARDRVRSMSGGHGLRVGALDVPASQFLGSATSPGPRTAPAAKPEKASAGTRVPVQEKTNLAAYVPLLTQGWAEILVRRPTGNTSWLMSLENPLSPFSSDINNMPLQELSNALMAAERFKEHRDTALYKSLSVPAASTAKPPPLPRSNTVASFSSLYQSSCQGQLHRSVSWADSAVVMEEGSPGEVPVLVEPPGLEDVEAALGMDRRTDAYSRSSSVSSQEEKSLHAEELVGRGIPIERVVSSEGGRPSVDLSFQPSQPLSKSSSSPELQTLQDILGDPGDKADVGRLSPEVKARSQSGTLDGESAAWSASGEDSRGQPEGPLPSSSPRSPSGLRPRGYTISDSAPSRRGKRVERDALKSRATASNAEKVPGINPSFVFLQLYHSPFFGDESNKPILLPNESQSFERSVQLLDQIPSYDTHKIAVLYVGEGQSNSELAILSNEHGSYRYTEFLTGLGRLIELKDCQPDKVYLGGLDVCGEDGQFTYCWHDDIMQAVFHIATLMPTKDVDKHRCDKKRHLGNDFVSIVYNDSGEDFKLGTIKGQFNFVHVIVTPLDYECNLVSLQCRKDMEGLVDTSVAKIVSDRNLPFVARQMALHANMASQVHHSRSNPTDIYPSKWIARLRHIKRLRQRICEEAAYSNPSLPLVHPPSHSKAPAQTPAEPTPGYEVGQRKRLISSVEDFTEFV
UniProt O95433: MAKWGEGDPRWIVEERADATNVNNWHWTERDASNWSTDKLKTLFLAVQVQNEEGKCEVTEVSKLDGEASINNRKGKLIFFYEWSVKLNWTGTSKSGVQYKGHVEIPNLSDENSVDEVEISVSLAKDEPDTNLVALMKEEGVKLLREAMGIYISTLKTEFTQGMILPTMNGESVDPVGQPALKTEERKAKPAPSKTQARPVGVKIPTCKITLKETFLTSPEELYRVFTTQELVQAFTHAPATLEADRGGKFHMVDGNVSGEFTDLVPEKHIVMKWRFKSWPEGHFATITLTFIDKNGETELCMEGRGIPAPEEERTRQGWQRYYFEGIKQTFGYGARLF
UniProt P04150: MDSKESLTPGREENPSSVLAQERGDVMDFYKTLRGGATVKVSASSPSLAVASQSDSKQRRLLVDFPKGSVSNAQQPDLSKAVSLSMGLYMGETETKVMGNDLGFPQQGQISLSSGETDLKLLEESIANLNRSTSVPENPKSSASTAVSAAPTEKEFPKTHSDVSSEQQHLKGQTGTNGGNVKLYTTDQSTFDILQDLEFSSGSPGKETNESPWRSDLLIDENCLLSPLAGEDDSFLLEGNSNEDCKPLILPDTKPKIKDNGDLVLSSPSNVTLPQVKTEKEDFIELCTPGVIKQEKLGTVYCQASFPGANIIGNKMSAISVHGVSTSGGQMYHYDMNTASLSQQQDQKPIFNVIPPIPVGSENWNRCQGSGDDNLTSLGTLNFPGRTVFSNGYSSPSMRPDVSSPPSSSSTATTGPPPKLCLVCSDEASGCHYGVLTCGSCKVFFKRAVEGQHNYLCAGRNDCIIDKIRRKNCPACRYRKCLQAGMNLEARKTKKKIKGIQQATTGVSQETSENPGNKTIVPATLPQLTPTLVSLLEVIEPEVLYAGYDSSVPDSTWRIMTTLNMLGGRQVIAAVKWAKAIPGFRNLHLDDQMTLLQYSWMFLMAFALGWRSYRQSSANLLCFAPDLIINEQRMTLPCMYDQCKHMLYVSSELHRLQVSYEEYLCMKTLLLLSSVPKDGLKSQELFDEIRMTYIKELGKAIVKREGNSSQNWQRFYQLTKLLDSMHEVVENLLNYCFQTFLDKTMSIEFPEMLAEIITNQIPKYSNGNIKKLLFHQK
UniProt Q61037: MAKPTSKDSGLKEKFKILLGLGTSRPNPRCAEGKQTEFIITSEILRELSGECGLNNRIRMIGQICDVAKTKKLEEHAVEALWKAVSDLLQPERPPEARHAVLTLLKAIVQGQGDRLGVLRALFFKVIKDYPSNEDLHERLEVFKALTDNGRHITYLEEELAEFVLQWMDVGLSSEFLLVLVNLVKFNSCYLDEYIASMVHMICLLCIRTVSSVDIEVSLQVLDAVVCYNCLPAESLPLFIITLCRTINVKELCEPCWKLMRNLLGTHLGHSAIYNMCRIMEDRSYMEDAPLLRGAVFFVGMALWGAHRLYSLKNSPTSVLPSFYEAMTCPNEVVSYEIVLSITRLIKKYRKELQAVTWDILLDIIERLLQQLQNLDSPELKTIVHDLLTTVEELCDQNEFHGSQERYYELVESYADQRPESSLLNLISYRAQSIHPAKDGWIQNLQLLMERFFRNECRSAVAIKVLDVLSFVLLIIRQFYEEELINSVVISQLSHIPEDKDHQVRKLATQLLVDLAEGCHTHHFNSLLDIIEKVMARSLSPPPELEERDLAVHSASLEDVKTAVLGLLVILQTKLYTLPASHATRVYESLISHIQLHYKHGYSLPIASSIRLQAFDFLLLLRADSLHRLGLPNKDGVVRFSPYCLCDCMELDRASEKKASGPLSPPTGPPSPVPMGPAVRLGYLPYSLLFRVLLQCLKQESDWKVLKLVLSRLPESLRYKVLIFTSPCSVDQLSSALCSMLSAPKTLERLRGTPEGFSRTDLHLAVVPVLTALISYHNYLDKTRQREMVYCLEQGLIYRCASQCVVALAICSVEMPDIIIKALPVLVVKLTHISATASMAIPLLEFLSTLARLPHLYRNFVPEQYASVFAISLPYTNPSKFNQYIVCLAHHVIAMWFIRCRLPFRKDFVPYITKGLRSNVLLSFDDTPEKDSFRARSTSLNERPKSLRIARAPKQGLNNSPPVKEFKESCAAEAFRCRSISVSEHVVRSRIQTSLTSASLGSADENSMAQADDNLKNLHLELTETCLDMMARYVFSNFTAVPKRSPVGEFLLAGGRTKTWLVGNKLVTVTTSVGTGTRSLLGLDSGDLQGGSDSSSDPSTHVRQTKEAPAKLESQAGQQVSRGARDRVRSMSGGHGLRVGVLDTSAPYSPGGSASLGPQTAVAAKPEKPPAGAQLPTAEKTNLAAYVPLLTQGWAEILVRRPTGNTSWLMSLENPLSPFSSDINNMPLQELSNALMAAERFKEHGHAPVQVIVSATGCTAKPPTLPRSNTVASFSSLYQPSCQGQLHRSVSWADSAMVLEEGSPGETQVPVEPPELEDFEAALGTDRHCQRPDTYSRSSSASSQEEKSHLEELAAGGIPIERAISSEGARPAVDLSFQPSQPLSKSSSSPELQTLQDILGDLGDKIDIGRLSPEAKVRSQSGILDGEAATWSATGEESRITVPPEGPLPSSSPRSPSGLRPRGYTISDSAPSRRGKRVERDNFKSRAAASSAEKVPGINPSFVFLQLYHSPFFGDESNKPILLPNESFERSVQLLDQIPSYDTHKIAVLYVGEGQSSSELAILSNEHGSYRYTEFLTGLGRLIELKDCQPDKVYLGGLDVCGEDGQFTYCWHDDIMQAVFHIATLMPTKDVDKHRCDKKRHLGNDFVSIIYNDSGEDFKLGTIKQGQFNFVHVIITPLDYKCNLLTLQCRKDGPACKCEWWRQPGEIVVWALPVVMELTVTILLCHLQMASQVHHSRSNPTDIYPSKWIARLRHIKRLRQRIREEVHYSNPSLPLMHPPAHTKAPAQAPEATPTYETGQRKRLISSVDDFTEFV

Residue numbers refer to the chain shown, from its start. Results are given in words; binding and its absence hold for the method and conditions named. In cells and extracts the contact can be indirect. Some binding calls cover weakened binding; strength is not graded here. For some assays here: Sequences can lack the tags named with a protein.

One assay deals with T1, Tsc1-D-FLAG (UniProt Q92574).
T1 sequence: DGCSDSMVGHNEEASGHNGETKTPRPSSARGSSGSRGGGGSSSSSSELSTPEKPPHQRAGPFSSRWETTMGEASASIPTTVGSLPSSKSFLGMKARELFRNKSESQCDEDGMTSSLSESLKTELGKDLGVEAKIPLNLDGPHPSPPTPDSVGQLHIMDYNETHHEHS
Kind of assay: co-IP; FLAG-tagged protein transiently expressed in HEK293, immunoprecipitated with anti-FLAG M2 affinity gel; endogenous partners by immunoblot; empty vector control. (In general: A western blot detects proteins with antibodies after separation by electrophoresis.)

The target in assay [1] is Tsc2 (tuberin) (human (endogenous in HEK293)) (UniProt P49815). Kind of assay: co-IP; endogenous Tsc2 immunoprecipitated from HEK293 lysate with anti-Tsc2 antibody (IgG control); immunoblot.
Assay [2] addresses T2, Tsc1 (hamartin) (human (endogenous in HEK293)) (UniProt Q92574).
T2 sequence: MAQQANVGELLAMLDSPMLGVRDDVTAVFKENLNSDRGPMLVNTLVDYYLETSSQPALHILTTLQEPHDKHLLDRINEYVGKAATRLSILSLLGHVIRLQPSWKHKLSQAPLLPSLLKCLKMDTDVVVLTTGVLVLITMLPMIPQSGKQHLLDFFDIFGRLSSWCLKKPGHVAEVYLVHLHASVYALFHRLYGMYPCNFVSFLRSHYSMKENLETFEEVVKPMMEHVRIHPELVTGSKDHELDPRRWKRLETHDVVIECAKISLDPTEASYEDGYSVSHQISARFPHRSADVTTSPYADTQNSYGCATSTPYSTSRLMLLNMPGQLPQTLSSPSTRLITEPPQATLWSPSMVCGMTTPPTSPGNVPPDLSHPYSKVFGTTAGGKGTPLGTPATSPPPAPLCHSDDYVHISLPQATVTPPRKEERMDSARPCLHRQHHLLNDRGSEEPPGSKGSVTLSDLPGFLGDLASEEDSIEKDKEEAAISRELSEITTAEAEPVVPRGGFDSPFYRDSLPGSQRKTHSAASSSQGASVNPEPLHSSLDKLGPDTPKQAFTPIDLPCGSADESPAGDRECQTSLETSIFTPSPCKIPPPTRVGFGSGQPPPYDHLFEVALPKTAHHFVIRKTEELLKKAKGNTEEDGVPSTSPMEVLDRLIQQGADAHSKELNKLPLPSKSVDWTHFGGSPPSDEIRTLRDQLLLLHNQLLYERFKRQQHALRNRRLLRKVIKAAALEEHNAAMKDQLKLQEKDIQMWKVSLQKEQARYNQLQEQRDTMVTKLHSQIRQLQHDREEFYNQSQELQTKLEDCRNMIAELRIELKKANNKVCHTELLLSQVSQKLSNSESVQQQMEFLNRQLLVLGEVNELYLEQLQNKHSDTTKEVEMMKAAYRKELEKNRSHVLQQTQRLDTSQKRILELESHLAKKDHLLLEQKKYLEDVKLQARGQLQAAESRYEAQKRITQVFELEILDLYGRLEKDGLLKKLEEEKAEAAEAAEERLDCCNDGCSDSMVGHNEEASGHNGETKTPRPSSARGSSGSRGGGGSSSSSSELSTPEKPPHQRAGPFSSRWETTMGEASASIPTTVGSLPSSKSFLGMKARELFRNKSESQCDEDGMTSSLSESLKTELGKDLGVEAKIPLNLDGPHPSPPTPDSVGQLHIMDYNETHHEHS
The assay can be described thus: co-IP; endogenous Tsc1 immunoprecipitated from HEK293 lysate with anti-Tsc1 antibody (IgG control); immunoblot.

For a further assay, the target named is T3, L117P-Tsc1-HA (UniProt Q92574).
T3 sequence: T2 sequence with L117P
The assay can be described thus: co-IP; L117P-Tsc1-HA (6 μg plasmid) transiently expressed in Tsc1−/− MEF cells and immunoprecipitated; immunoblot.

For Aha1 (from UniProt O95433 1-338), the binding entry (in the assay with Tsc1-D-FLAG; in assay [1]; in assay [2]) was “no binding” each time.

Regarding “glucocorticoid receptor (GR) (from UniProt P04150 1-777)”, the binding entry in assay [2] is listed as “binds”.

As to Raf-1 (from UniProt P04049 1-648), the binding result in assay [2] was “binds”.

On to HOP (from UniProt P31948 1-543), for which the binding entry in assay [1] was “binds”; in assay [2] it was “no binding”.

Turning to “Tsc2 (MEF cells) (from UniProt Q61037 1-1814)”, in the assay with L117P-Tsc1-HA, the binding result is reported as “binds”.
